# Reference: the supplement of paper PMC11417369
# Some of the results follow.
# Test system: PfSIP2 AP2 domain 1 (GST-tagged)
# Assay: gcPBM binding intensity (ln(normalized median fluorescence intensity)); higher = stronger DNA binding
# Procedure, shortened: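 Plasmodium falciparum DNA-binding domains carrying a GST tag were expressed in E. coli and applied for 1 h, at about 25 μg on average, to an Agilent 4 × 180k array. The array held primer-extended double-stranded 36-bp intergenic genomic probes together with negative controls, and binding took place in 1× PBS with 1% milk, 0.2 mg/ml BSA, 0.5% salmon testes DNA and 0.03% Triton X-100. An Alexa488 anti-GST antibody detected bound protein, and the array was scanned at 488 nm. Binding intensity is taken as the highest Masliner-normalised natural-log median intensity across replicate spots of either probe orientation.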
row,Sequence,gcPBM binding intensity (ln)
1,TGTATATATATATAAAGTACATATAATATATATTTG [XGTACX_site5411],6.98
2,AAATAAAATTATAACTGTACGTTGTATGAAATAATG [XGTACX_site5462],7.29
3,CTGTTTAAAATATAAACACACATTGTTTGCTTTAGA [CACACA_site1301],6.95
4,ATTTTTTTACTGCAACCATATTTTTCCCTTTTATTC [CACACA_negctrl_site1282],7.16
5,TCTATAAAGTTCCATACATGCGCCATCATTTATATT [TGCATGCA_site195],6.96
6,GAATACACCACGCACACACACTTGAGAAAAAATAAA [CACACA_site7747],7.57
7,ATTATAATTATTTTGTTGCACTATTTTTGTAGGCCA [GTGCAC_site9734],8.7
8,GTGTACATAGGTATAGCACACACAAATGTAGGTATT [CACACA_site9339],6.87
9,TTTATAAAAATATACACACATACAAATATGCATATA [CACACA_site712],6.87
10,GAAAAAAGGAAATAAAGAAAAAAAAAAATGAAATAT [XGTACX_negctrl_site318],6.73
11,GTCAAATTTTTGTGCACACATATATAGTTATTATTA [CACACA_site2241],10
12,TAATAATATATATGAAGTACAATAACTTTTTGTTTT [XGTACX_site292],6.89
13,TTTATATGTATTAAGTGTACACATATAATCTATCTT [XGTACX_site4922],6.93
14,TTTCTTTTCTCAGAAATTATTCAAATGAAAAAAAAT [TGCATGCA_negctrl_site44],6.74
15,AAAATACACGCATACACACACACACCCACCCATATA [CACACA_site639],7.14
16,AAAAAAAAAAAAAAAACACACACATACACCCAAAAA [CACACA_site7910],7.77
17,TTACATATGGTTAGTAGTACATATATAAATGTAAAT [XGTACX_site7206],7
18,GTATACACATATATATGTACTTAATTATTTTATGTC [XGTACX_site6707],7.15
19,CAAAGGGAAATTAACACACACATATATATATATATA [CACACA_site2453],9.24
20,AAACATGATTATTATAGTACAATTATAATTATTATA [XGTACX_site2590],6.95
21,GTCATAAAAACATATACACACTTGAAATATAAAAAT [CACACA_site5315],7.23
22,GAACTAATAATGAAAAGTACACATACACATATATAT [XGTACX_site6789],7.35
23,AAATGTATACACATGGTGCGTAATATATTATATATA [GTGCAC_site9877],9.09

row,Sequence,gcPBM binding intensity (ln)
1,CTACCAAATCTATAGACACACATATATATATATATT [CACACA_site2486],7.17
2,AAATACAAGGGACATGCATACCACTATTTTTTAAAT [TGCATGCA_site588],7.02
3,TTTATATAATAGTTATGTACTTAAACGAAAGATACA [XGTACX_site8495],6.99
4,AAAGATATTTTTATCTCACACATATAATATATATAT [CACACA_site5478],8.38
5,TAAAATTTAAGTTATACACACTTAAGTAACATCATC [CACACA_site6395],6.85
6,TATAGAAAATTTATATGTACATATATATATATATAT [XGTACX_site4451],9.78
7,GTTACTGCATACATAACACACATATTCAAAACACAT [CACACA_site3502],7.28
8,TATTTACAGACATGCGCACACATAAATAAATAATAG [CACACA_site2411],8.85
9,TAAGTTTGTCAATCAACACACACCTATTTATTATAT [CACACA_site3919],6.92
10,CACTTTAATTTATGCACACATATGGAACAACAGCCA [CACACA_site994],7.73
11,CTTAAAATGATAATATGTACACATAAATAATATATA [XGTACX_site8330],7.23
12,TTTTTTGACATTCCTTTTAATAATTAACGAAAGGCA [GTGCAC_negctrl_site377],6.92
13,TATATAATATTACGTTGTACACTTTAATCTCCCTTC [XGTACX_site5577],7.02
14,ACCATTTGAAAATTCACACACTTTATTTTGTTATAT [CACACA_site5976],7.25
15,ACTAATATGCAATATTGTACATATATATAGAAATAT [XGTACX_site5273],7
16,TATAATCAATGCCAAAGTACATATTAATATATTTAT [XGTACX_site4558],6.95
17,AATATATCGCATAGTTGTACAGAATTTTTACTTTTA [XGTACX_site8192],7
18,ATTGAAAAATAAAAATGTACACATGTAGCATACCAT [XGTACX_site3275],7.19
19,ATATATATATATATATGTACACATATATTTCTTTTC [XGTACX_site3443],9.58
20,ATAAAATTTTATATGGGTACATAATATAATATATAT [XGTACX_site8160],7.19
21,ATTCCTGGACCGTTCATGCACTTGCAGAACGTCCAT,7.72
22,TTTATGAAATGTTGCACACAAAAAACAACATGTTTT [CACACA_site1440],7.37
23,TTTAAAAATTAATTCTGTACACATTTTTATTATATT [XGTACX_site4212],6.99

row,Sequence,gcPBM binding intensity (ln)
1,AAATGATATAAATTATAAAATGGATTTTTTCCATTG [CACACA_negctrl_site420],6.58
2,AAAAAAAAAAAAAGTGCACACGATTTAAGGCCTATA [CACACA_site2823],10.9
3,CTCTATATATTATTATGTACTAAATGTATGTATGTA [XGTACX_site7151],7.23
4,TTCTTCTGTTTTATTACACACCATTTTGTGTCTACA [CACACA_site8643],7.31
5,TAACACACTAAGAAAAGTACTGATTAATATAATTTT [XGTACX_site5536],6.91
6,AAAACACAATTTATTACACACATATATTATATATTA [CACACA_site1420],6.98
7,ATGAATGAATAAAGAAGTACGGAAATATTAACAAAA [XGTACX_site4695],7.26
8,ATAACATACATAACAACACACAATATTTATCTGTAT [CACACA_site4279],7.09
9,TTCATTCAAATCCAAGCATGCTTTATTAAAAAATTA [TGCATGCA_site567],6.96
10,ATATATAATTCCCAAGTGCATTTATTTTAATTATTA,8.9
11,TACGCCTATAACGGCTGTACACCTTACTTTTTTTAA [XGTACX_site6818],6.62
12,TATGATTTTTATATATGTACGTATGGTGTTTTACAA [XGTACX_site6100],7.19
13,AATAAATTTCAAAATTGTACTCATTTCCTTTCCCAA [XGTACX_site5887],6.83
14,TGTGAAATAAAATTTGTACACACATATATATATATA [CACACA_site8093],9.6
15,AAAAAAAAAATACATACACACACACCCACCCATATA [CACACA_site9187],7.15
16,ATTAATCCAAATGAATGTACTTAATAATGTAATTAT [XGTACX_site8946],6.87
17,TGTCCCCCTTTCTATGCACACTTTAAATTATTCAAA [CACACA_site4200],8.53
18,TTTATTTTACAAAAAAGTACAAGAAGAAATATCAAT [XGTACX_site7812],7.5
19,ATATTTAGAATGTTCCTACACACCAAATTTAAGTGG [CACACA_site2346],6.9
20,TATTAAAAGTAAAAAACACACATGGATAAATACATA [CACACA_site6048],6.87
21,TTATATATAAATGAAAGTACAAAACAGGAAAGAATA [XGTACX_site1076],7.64
22,AATGATATATTATAAACACACAAAGATGGATATATA [CACACA_site7349],6.88
23,ATATATAATATATGTGGTACGCAAAATATTATATTA [XGTACX_site4969],7.07

row,Sequence,gcPBM binding intensity (ln)
1,AATACACGCAAACACACACACACACCCACATATATA [CACACA_site638],7.27
2,TCAATATACCAAAAATGTACAAAAAATAAACAATAT [XGTACX_site8251],7.21
3,TTTATATTATAATATAATAATGATCTTAATTTTTTT [XGTACX_negctrl_site100],6.77
4,GAACATTTCACATGGTGTACTCTCTTTTTCAAATAA [XGTACX_site1632],6.87
5,ATGAGTATACTAAGAACACACAAGTTACTTGGTGTT [CACACA_site4981],6.62
6,TAAAAAAAAAAAATGTGTACATATTATATATATCTT [XGTACX_site2615],7.14
7,TATAACAAGTAATGTTGTACATTATATTATGTAATA [XGTACX_site2769],6.8
8,TTTTTTATTATTATGTGTACGAATATGTGCATATAA [XGTACX_site1364],7.31
9,TTTTTTCTCTATATATGTACATATAAAAAATATATC [XGTACX_site6382],7.16
10,GTTACACAAACAAACACACACACACGCACGCACAAA [CACACA_site7191],7.54
11,CATATTATTTAAACATGTACTCACATATAAATATAA [XGTACX_site6096],7.15
12,TGTTTATAAATATAAAAAAATATATATATATATTAT [GTGCAC_negctrl_site247],7.05
13,ATTTTATAATTTATATCACACACATATATATATAGT [CACACA_site7885],7.16
14,CAAAATTAATAAGTCACACACACATCTATAATATAT [CACACA_site6519],6.78
15,TTCTTTATTTTTTCTACACACATTAGATATTCAAAG [CACACA_site7624],7.53
16,ACCATAACATGAATTACAGGAATTGAAAATGTTCCA [CACACA_negctrl_site649],6.8
17,TATATATATATATTCACACATAAGATGAATAAAGTG [CACACA_site4225],9.21
18,GGTTACATTTTATTTTGTACATAAAAATTTTTATTT [XGTACX_site218],7.43
19,GTATTATATATAAAAGTGCATATTTTTTTCCCTTAC,8.93
20,AAATAATTAAAAAAAAGTACACATGTGACTACATAT [XGTACX_site8767],7.09
